From PubChem BioAssay AID1240 (Sanford-Burnham Center for Chemical Genomics, 2008)
The whole screen tested about 50,000 compounds, of which about 800 (1.6%) showed an effect of 50% or more. The list shows a part of the results.

Each compound was assayed against Bcl-2-like protein 10 (Homo sapiens) (UniProt Q9HD36) (assay: Phenotype converters, Bcl-B/TR3 peptide binding displacement, primary biochemical FP (AID 1240;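 further: 0% = Bcl-B with tracer peptide and DMSO and 100% = tracer peptide lacking Bcl-B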)). Conditions: GST-Bcl-B / FITC-TR3 peptide fluorescence polarization; stronger effect = higher value; compound at 3.75 mg/L.
Sequence of UniProt Q9HD36 (Q9HD36 whole entry, looked up): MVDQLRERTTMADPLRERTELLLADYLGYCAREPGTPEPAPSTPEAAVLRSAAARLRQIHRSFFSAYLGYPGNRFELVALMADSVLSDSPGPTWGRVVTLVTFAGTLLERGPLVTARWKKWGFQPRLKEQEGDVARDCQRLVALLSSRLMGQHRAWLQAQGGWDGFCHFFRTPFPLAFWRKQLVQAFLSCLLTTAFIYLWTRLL
Work on `Cc1cc(C)nc(N/N=C\c2c[nH]c3ccccc23)n1` yielded a displacement of -19.3%.
`Cc1sc2c(=O)n3c(nc2c1C(=O)NC1CCCCC1)CCCCC3` gave a displacement of 23.8%.
Work on `Cc1ccc(N2C(=O)CC(NCc3cccc(Cl)c3)C2=O)cc1` (stereo unspecified) yielded a displacement of 1.2%.
With `O=C(O)CCCCCN1C(=O)C(O)=C(C(=O)/C=C/c2ccccc2)C1c1ccc(F)cc1` (stereo unspecified) the displacement was -1%.
For `CC(=O)c1c(C)oc2c1C(=O)c1ccccc1C2=O`, the displacement was 2.9%.
With `CCOC(=O)C1=CN(c2ccc(OCC)cc2)C=C(C(=O)OCC)C1c1ccc(OC)c(OC)c1` the displacement was 7.6%.
`COc1ccccc1C1=N/C(=C\c2ccc3c(c2)OCO3)C(=O)O1` was tested, and the displacement was 111%.
`C#Cc1cccc(N2C(=O)c3ccc(Oc4cccc([N+](=O)[O-])c4)cc3C2=O)c1` was tested, and the displacement was -3.5%.
Compound `O=C(Nc1ccc(Cc2ccncc2)cc1)c1ccc(Br)o1` has a displacement of 13.1%.
Compound `COC(=O)C1=C(C)N=c2s/c(=C/C=C/c3ccccc3)c(=O)n2C1c1ccccc1` (stereo unspecified) has a displacement of 3.9%.
For `CC(=O)COc1ccc2c3c(c(=O)oc2c1C)CCC3`, the displacement was 12.8%.
`CCOC(=O)COc1ccc2c(=O)c(Oc3ccccc3Br)coc2c1` gave a displacement of -8.7%.
Compound `O=C1c2ccccc2C(=O)N1CN1c2ccccc2CCc2ccccc21` has a displacement of -8.3%.
Work on `CC(=O)c1cccc(NC(=O)Nc2ccc(Cl)cc2)c1` yielded a displacement of 2.2%.
In the case of `Cc1nc(N2CCCCC2)[nH]c(=O)c1C=O`, the displacement is reported as -5.9%.
In the case of `CC1=C(C(=O)Nc2ccccc2)C(c2ccc(Cl)cc2)NC(=S)N1` (stereo unspecified), the displacement is reported as -4.2%.
`O=C(c1cc(Cl)cc(Cl)c1)N1CCOCC1` gave a displacement of -5.7%.
`CCOP(=O)(OCC)C(NC(=O)c1ccco1)C(=O)c1ccc(C)cc1` (stereo unspecified) showed a displacement of 11.7%.
`Cc1ccc(-c2nnc(-c3cccs3)o2)cc1` showed a displacement of -9.2%.
Compound `COC(=O)C(Cc1ccccc1)NC(=O)CCN1C(=O)c2cccc3cccc(c23)C1=O` (stereo unspecified) has a displacement of 15%.
Compound `COc1ccc(C2CC(=O)C3=C(C2)Nc2ccccc2NC3c2ccc(O)cc2)cc1OC` (stereo unspecified) has a displacement of 1.8%.
For `NC(=O)C1CCN(Cc2c(O)ccc3ccccc23)CC1`, the displacement was 12.1%.
In the case of `COc1ccc(NC(=O)COc2cccc(C)c2C)cc1`, the displacement is reported as -8.3%.
`CCC(=O)N(Cc1ccco1)C1CC(=O)N(c2ccccc2)C1=O` (stereo unspecified) showed a displacement of -7.7%.
In the case of `CCOC(=O)C1=C(c2ccccc2)NC(=S)NC1c1ccc(SC)cc1` (stereo unspecified), the displacement is reported as 6.1%.
For `COc1cccc(NC(=O)c2cc(Cl)ccc2OC)c1`, the displacement was 0.3%.
For `C/C(Nc1ccccc1)=C(/C#N)C(N)=O`, the displacement was -17.4%.
Work on `C=CCN1C(=O)/C(=C\c2cc([N+](=O)[O-])cc([N+](=O)[O-])c2O)C(=O)NC1=S` yielded a displacement of 42.1%.
With `CCOC(=O)COc1c(Cl)cc(C=C2C(=O)NC(=S)NC2=O)cc1Cl` the displacement was 15.6%.
`Cc1ccc(-n2c(=O)c3c(n4c(=S)[nH]nc24)-c2ccccc2CC32CCCCC2)cc1` gave a displacement of -22.5%.
With `Cc1cc(C(=O)NCCC(C)C)ccc1[N+](=O)[O-]` the displacement was 8.7%.
For `COc1ccc(C(=S)N2CCCC2)c(OC)c1`, the displacement was -6.7%.
`CCOc1ccccc1C=NN1CCN(Cc2ccccc2)CC1` showed a displacement of -6%.
Compound `Cc1ccc(-c2csc(NC(=O)c3ccc(Cl)cc3[N+](=O)[O-])n2)c(C)c1` has a displacement of -0.3%.
Compound `CC1CCCC(N2CCN(Cc3cccnc3)CC2)C1` (stereo unspecified) has a displacement of -4.7%.
Compound `COc1cc(OC)cc(C(=O)Nc2cc(C)ccc2OC)c1` has a displacement of 12.4%.
Work on `CS(=O)(=O)c1ccc2nc(NC(=O)c3cc([N+](=O)[O-])ccc3Cl)sc2c1` yielded a displacement of -3.8%.
In the case of `O=[N+]([O-])c1cccc(N=Cc2ccc[nH]2)c1`, the displacement is reported as -2.1%.
With `Cc1cccc(C)c1NC(=S)NC(=O)/C=C/c1ccccc1` the displacement was 12.1%.
In the case of `O=C(CSc1nc2ccccc2s1)Nc1ccccc1F`, the displacement is reported as -6.7%.
Work on `Cc1ccc(N2C(=O)CC(NC(C)C34CC5CC(CC(C5)C3)C4)C2=O)cc1` (stereo unspecified) yielded a displacement of 2.8%.
`O=C(Cc1nc(O)cs1)c1ccccc1` gave a displacement of 4.6%.
`COc1ccc(COC(=O)C2=C(C)NC3=C(C(=O)CC(C)(C)C3)C2c2cc([N+](=O)[O-])ccc2Cl)cc1` (stereo unspecified) showed a displacement of -1.2%.
In the case of `S=C(NCc1ccco1)NC1CCCC1`, the displacement is reported as 5.3%.
`NC(=O)c1ccc(NC(=O)c2cc3ccccc3cc2O)cc1` gave a displacement of -8.6%.
`COC(=O)c1c(NC(=O)C(C)C)sc2c1CCCCC2` showed a displacement of -8.3%.
For `O=S(=O)(Cc1ccccc1)CC(O)COc1ccc(Cl)cc1` (stereo unspecified), the displacement was -8.8%.
Compound `O=C(Nc1cccc([N+](=O)[O-])c1)C1COc2ccccc2O1` (stereo unspecified) has a displacement of -4.5%.
Compound `CCSc1nc2sc3c(c2c(=O)n1-c1ccc(OC)cc1)CCC3` has a displacement of 47.7%.
`Cc1cccc(-n2c(SCC(=O)c3ccccc3)nc3ccccc3c2=O)c1` showed a displacement of -0.7%.
For `CCOc1cc(/C=N/Nc2nc(N3CCCCC3)nc(N3CCCCC3)n2)ccc1OC`, the displacement was 8.6%.
Compound `CC1=NN(c2ccccc2)C(=O)/C1=C\c1cn(CCC#N)nc1-c1ccc(C)o1` has a displacement of -20.1%.
Compound `CCOc1ccc(NC(=O)CN(c2cc(Cl)cc(Cl)c2)S(C)(=O)=O)cc1` has a displacement of 8.6%.
`CCOC(=O)c1ccc(NC(=O)CN2C(=O)/C(=C/c3ccc(C)cc3)SC2=S)cc1` was tested, and the displacement was 12%.
In the case of `Cc1cccc(C)c1OCC(=O)Nc1ccc(Br)cc1C(=O)O`, the displacement is reported as 12%.
In the case of `COC(C)(C)CCCC(C)COC(C)=O` (stereo unspecified), the displacement is reported as -8%.
`Oc1ccc(/C=N/N2CCN(Cc3cccc4ccccc34)CC2)cc1O` was tested, and the displacement was 3.1%.
`COc1ccc(N2C(=O)NC(=O)/C(=C\c3cc(Br)c(OC)cc3OC)C2=O)cc1` showed a displacement of 15.7%.
`O=C(Nc1ccc2nsnc2c1)c1cccs1` was tested, and the displacement was -20.5%.
In the case of `O=C(CCN1C(=O)/C(=C\c2cccs2)SC1=S)N1CCOCC1`, the displacement is reported as 7.5%.
`COc1ccc(CNS(=O)(=O)c2c(C)cc(C)cc2C)cc1` showed a displacement of -5.5%.
With `O=C(Cc1ccccc1)Nc1cccc(-c2nnc(-c3cccc(NC(=O)Cc4ccccc4)c3)o2)c1` the displacement was 14.2%.
In the case of `O=C1NC(=O)N(c2cccc(Br)c2)C(=O)/C1=C/C=C/c1ccccc1`, the displacement is reported as 17.1%.
`Nc1c(C(=O)C2CC2)sc2nc3c(cc12)CCC3` was tested, and the displacement was -4.1%.
With `CCOCCOC(=O)c1ccc(NC(=O)c2cccs2)cc1` the displacement was -7.9%.
Compound `Cc1cc(OC(C)C)c2c(-c3ccccc3)cc(=O)oc2c1` has a displacement of 1.2%.
For `CCOc1ccc2nc(NC(=O)COc3ccccc3C)sc2c1`, the displacement was 8.1%.
`CCN(CC)Cc1c(O)ccc2c(=O)c(-c3ccc(Cl)cc3)coc12` was tested, and the displacement was -1.1%.
With `COc1ccc(Cl)cc1N(CC(=O)Nc1cc(C)ccc1C)S(=O)(=O)c1ccc(C)cc1` the displacement was 0.9%.
`C[n+]1ccn2c3c(c4cc(C5CCCCC5)ccc42)CCCc31` showed a displacement of 49.2%.
`Cc1ccc(N2NC(=O)/C(=C\c3ccc4c(c3)OCO4)C2=O)cc1` showed a displacement of 2.9%.
